Consider 24 molecules from PMC4336329 (PLoS ONE, 2015).

Screen size: about 310,000 compounds; about 2,200 (0.71%) showed an effect of 50% or more. Effects have a minus sign here. Some of the results follow.

Sequence of human ether-à-go-go-related gene (hERG) potassium channel (Q12809 whole entry, looked up): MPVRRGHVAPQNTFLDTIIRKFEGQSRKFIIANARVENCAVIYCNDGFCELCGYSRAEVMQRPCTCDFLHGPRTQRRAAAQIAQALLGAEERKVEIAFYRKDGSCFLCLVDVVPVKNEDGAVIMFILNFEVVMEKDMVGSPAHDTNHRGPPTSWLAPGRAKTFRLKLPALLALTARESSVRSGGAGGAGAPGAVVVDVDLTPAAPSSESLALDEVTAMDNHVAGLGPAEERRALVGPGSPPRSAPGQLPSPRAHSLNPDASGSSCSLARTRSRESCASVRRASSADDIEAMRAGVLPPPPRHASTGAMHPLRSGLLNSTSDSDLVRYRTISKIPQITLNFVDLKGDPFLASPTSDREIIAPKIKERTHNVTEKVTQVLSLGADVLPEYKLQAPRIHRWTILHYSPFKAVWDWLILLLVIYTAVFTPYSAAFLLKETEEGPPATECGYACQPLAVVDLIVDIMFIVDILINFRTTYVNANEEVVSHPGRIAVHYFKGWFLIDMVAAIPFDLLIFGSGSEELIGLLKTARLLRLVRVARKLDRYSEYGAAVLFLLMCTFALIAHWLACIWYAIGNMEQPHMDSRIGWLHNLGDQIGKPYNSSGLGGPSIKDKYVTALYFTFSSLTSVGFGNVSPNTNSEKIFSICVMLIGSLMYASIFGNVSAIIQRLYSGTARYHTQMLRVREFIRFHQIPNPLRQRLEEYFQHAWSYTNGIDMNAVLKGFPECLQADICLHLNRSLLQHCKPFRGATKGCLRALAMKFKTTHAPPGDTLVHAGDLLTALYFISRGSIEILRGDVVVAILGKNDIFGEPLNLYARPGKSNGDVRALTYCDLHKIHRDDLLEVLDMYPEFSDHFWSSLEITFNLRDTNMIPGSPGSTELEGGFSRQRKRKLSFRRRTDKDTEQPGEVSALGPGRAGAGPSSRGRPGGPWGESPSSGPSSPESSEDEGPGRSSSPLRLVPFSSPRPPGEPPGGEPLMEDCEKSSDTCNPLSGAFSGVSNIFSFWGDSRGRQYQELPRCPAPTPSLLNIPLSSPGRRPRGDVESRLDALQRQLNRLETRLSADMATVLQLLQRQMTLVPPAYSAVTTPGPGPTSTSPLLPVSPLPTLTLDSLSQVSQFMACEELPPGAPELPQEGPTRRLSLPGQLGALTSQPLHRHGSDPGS

This assay addresses human ether-à-go-go-related gene (hERG) potassium channel (human, UniProt Q12809). Put plainly: primary screen, population patch clamp on CHO cells stably expressing hERG.
With `Cc1c(NS(=O)(=O)c2cc(C(=O)NCC3CCCO3)cc(Cl)c2Cl)c(=O)n(-c2ccccc2)n1C` (stereo not drawn), the “hERG current change (%, negative = inhibition) at 1uM” value was determined as 11%.
As for `Cc1cccc(CCNc2nc3ccc(C)cc3n3cnnc23)c1`, the “hERG current change (%, negative = inhibition) at 1uM” value is 15.4%.
The same measure for `CC(=O)N1CCCc2cc(S(=O)(=O)N3CCCC(C(=O)Nc4cc(C)ccc4C)C3)ccc21` (stereo not drawn): 10.7%; for `CC[n+]1c(/C=C/Nc2ccccc2)oc2ccccc21.[I-]`: -64.9%.
For the molecule `CO/N=C/c1cc([N+](=O)[O-])ccc1Sc1ccc(C)cc1`, the “hERG current change (%, negative = inhibition) at 1uM” value stood at 9.84%.
For `O=C(NCCN1CCOCC1)c1c(Cl)cccc1Cl`, the “hERG current change (%, negative = inhibition) at 1uM” value was found to be 12.8%.
Consider `CSc1nc(NS(=O)(=O)c2ccc(F)cc2F)nn1C`, for which the “hERG current change (%, negative = inhibition) at 1uM” value amounted to 8.12%.
With `O=C(N/N=C/c1cc([N+](=O)[O-])ccc1O)c1c[nH]c2ccccc12`, the “hERG current change (%, negative = inhibition) at 1uM” value came out at 11.3%.
Regarding `C[C@H]1CCC/C=C/C2C[C@H](O)CC2[C@H](O)/C=C/C(=O)O1` (stereo partly drawn), the “hERG current change (%, negative = inhibition) at 1uM” value was 13.6%.
On to `O=C(NCc1ccccc1)c1cc(S(=O)(=O)N2CCCCC2)ccc1N1CCOCC1`, for which the “hERG current change (%, negative = inhibition) at 1uM” value was found to be 6.51%.
The same measure for `O=C(Nc1ccc(Cl)cn1)C1CCCN(c2ncnc3c2nc2n3CCCCC2)C1` (stereo not drawn): -6.77%; for `OC(COc1cccc2ccccc12)CN1CCN(c2ccc(Cl)cc2)CC1` (stereo not drawn): -1.91%; for `Cc1nn(-c2ccccc2)c(N2CCCC2)c1/C=N/NC(=O)c1cc(-c2ccccn2)nc2ccccc12`: 4.29%.
As to `Cc1cc(NC(=O)CSc2nnc(-c3ccncc3)n2Cc2ccccc2)n(-c2ccccc2)n1`, the “hERG current change (%, negative = inhibition) at 1uM” value is reported as -2.26%.
The same measure for `COC(=O)c1ccc(C(=O)N2CCCC(N3CCN(c4ccccc4)CC3)C2)nc1` (stereo not drawn): 1.6%.
`CC(Oc1ccccc1)C(=O)N1CCCc2ccccc21` (stereo not drawn): the “hERG current change (%, negative = inhibition) at 1uM” value is 9.2%.
The figure for `CC(=O)N1N=C2C3CCN(CC3)C2C1c1ccc(F)cc1` (stereo not drawn) is 2.27%.
For the molecule `N#C/C(=C\c1ccc(OCC(N)=O)cc1)C(=O)NC1CC1`, the “hERG current change (%, negative = inhibition) at 1uM” value is given as 4.81%.
Turning to `COc1ccc(CCNC(=O)COc2ccc3c(C)cc(=O)oc3c2)cc1OC`, the “hERG current change (%, negative = inhibition) at 1uM” value worked out at 10%.
Consider `Cn1c(=N)c(S(=O)(=O)c2ccc(F)cc2)cc2c(=O)n3ccccc3nc21`, for which the “hERG current change (%, negative = inhibition) at 1uM” value is listed as 3.69%.
In the case of `O=C(CCc1c[nH]c2ccccc12)NCCc1ccccc1`, the “hERG current change (%, negative = inhibition) at 1uM” value is given as 15.5%.
The figure for `Cn1nnnc1SCC(=O)Nc1ccccc1C(=O)NC1CC1` is 7.22%; for `O=C(NCC(F)(F)F)Nc1ncccn1` it is 15.6%.
The same measure for `Cc1cc(S(=O)(=O)N2CCCc3ccccc32)ccc1-n1cnnn1`: 11.6%.
